# Results published in the supplement of paper PMC3334620.
# The full ranking holds about 33,000 sequences; the median of “E-score (-0.5 to 0.5)” is about -0.017, and the highest 2% start at about 0.3. This is one part of the list.
# Target: T1, Sut1 (UniProt P53032)
# T1 sequence: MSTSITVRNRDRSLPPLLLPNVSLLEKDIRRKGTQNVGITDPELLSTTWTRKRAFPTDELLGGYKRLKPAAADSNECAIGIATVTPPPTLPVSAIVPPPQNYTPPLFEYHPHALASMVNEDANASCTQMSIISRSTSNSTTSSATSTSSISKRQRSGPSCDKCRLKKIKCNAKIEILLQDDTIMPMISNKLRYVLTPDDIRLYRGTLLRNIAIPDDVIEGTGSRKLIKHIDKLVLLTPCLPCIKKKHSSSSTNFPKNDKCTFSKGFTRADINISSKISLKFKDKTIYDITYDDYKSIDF
# Assay: PBM E-score (8-mer binding enrichment) (E-score (-0.5 to 0.5)); higher = stronger / more preferred TF binding; most listed sequences are background and not binding sites
# Settings: protein concentration: 200 nM; construct: GST-full length
# Outline: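 E-scores (a modified Wilcoxon-Mann-Whitney statistic) were assigned by the Universal PBM Analysis Suite to every ungapped eight-base word pooled with its reverse complement. The input came from universal all-10-mer Agilent arrays made double-stranded by primer extension and probed with GST-tagged yeast transcription factors at about 100-200 nM. Fluorescent anti-GST detected bound protein, and masliner normalised the scans.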
row,Sequence,PBM E-score
1,CACGAAAA,0.117
2,ACACCTTG,-0.0462
3,AACTCCCA,-0.0126
4,AGGCCTAA,-0.0602
5,ATAATATG,0.286
6,CCGTTTTC,0.0524
7,CCCCTGTC,-0.371
8,CAATGTAC,-0.162
9,GGATCAAC,0.0423
10,GATGACTA,-0.0602
11,ATACTAGC,0.021
12,AGCGGACT,0.406
13,AACGTTAA,0.158
14,ATTAGGAA,0.0997
15,GATTTCCC,0.0847
16,CGGCTAAC,0.156
17,ATTTACAC,0.0273
18,CCCCATTA,-0.19
19,GAATGTAC,0.145
20,CCGGCCAG,0.00718
21,ATCCGGAC,0.362
22,GATAGAAC,0.06
23,ATTGCTGA,-0.0342
24,AGATCTTC,0.0408
25,ATTGGTTG,-0.0326

row,Sequence,PBM E-score
1,AAGAACGC,0.024
2,CTCGAGCC,-0.283
3,CCCGGGGA,-0.00446
4,ATAAAAAT,0.252
5,CTGTAATA,0.218
6,AATATCAA,0.163
7,ACAGGTCC,0.0916
8,AGCTTGGA,-0.0995
9,TAACACAA,0.186
10,AGACAAGA,0.0406
11,AACGTCCT,-0.0852
12,AATTGCGA,0.0183
13,CGGTAGAC,0.101
14,GTACTCTA,0.00045
15,GCTGCCGA,-0.0579
16,CCGCCTAA,-0.17
17,GAACACTC,0.0251
18,CTTTCGCC,-0.0713
19,AGTAGGTA,0.0123
20,ACAACGCT,-0.159
21,GAAAGTTC,0.0193
22,GAAGATTC,0.171
23,AAGAGTTC,-0.0235
24,GATCGAAA,0.0489
25,TCCTTCGA,0.11

row,Sequence,PBM E-score
1,ATAAGGTA,0.106
2,GTAAAGCA,0.125
3,ATAAATAC,0.275
4,CCGGGCCA,-0.0793
5,CTACTAAA,0.123
6,CTTGGTTA,0.0382
7,CTGAGTGC,-0.199
8,GACCCGTA,-0.192
9,CGAAACGA,0.161
10,AAGTTTTG,-0.00678
11,GCGGGCGA,0.00688
12,ATAGATGC,0.007
13,AGATCTAC,-0.0245
14,CAGTCGGA,0.204
15,ACCTTATG,0.0125
16,TATGATGA,0.189
17,GTCAATAA,0.128
18,CGCTACAA,0.077
19,CGGAGATC,0.445
20,CAACTCTA,0.0751
21,CGGACGGC,-0.0292
22,ATGTGGCA,-0.197
23,AGTTCGCC,0.0621
24,AATGCTAG,-0.155
25,AAGCGATA,-0.147

row,Sequence,PBM E-score
1,AAGTAATG,0.116
2,CGATTGCG,0.0591
3,CCTTTACC,-0.153
4,CTGCGCCC,-0.393
5,ACTTGATA,0.284
6,GTTATAAA,0.303
7,CTCACAGA,-0.114
8,ATGTAGTG,0.0335
9,AAGACTTG,0.00502
10,GTTAGTAA,0.0675
11,AGTTGCAG,-0.0864
12,AGCCATAG,-0.239
13,AGTGGTGA,0.0435
14,CCGGACGC,0.0297
15,ACAAAACA,0.172
16,CTTCCCCC,-0.331
17,ATGCATAC,-0.0233
18,TTACTCAA,0.257
19,AACTCCCG,0.204
20,ATGAAAGA,0.18
21,CATGCCAA,-0.0109
22,ACTCGGCC,-0.162
23,GAGCCATC,-0.145
24,CCCTCCCG,-0.114
25,CCACGAAA,-0.0862

row,Sequence,PBM E-score
1,ACGCGTTC,-0.093
2,AAATAATC,0.235
3,CGACTCCG,0.47
4,TGGGCAAA,0.0407
5,CTAAAATA,0.157
6,AAAGCGCA,-0.155
7,AGTCCAAA,0.169
8,ATTGTTGC,-0.0508
9,ACTTCAAT,0.249
10,CACCCGAC,-0.101
11,CTGGCGTC,-0.204
12,CCTTTTCA,0.0013
13,AAGCGCCA,-0.309
14,ATTCCCTA,0.11
15,AATAGTCT,0.0832
16,AGGCCACT,-0.123
17,TCGCAGAA,-0.0495
18,ACAGTTTC,0.171
19,AACTGCCC,-0.236
20,GCAGTTGA,-0.0138
21,CCCCAGCA,-0.268
22,TACCAAGA,-0.0576
23,ATGTCGGC,-0.128
24,CCAAAACG,0.0306
25,AAGAGCCC,-0.09

row,Sequence,PBM E-score
1,CCACAGGA,-0.0589
2,TACACCAA,0.0304
3,ACGTACAC,-0.0319
4,AGATGTCA,0.0548
5,TATTATAA,0.252
6,AAAGGGCT,-0.0486
7,ACGCGCGT,0.149
8,AGCCTCGG,-0.012
9,AACCAGTT,0.24
10,AGCGCCGG,0.174
11,GGCTAAGA,-0.0669
12,TACTGAAA,0.232
13,AGACATTG,-0.0765
14,ACGGAGTA,0.473
15,GCCCCGAC,-0.137
16,CGTACACC,0.0584
17,AAGCTCCC,-0.156
18,GGTTATGA,-0.00868
19,GGTGATCA,-0.0693
20,CAGGCTCA,-0.214
21,CCGACCTC,-0.0484
22,TGTGGGAA,-0.0897
23,AATCATTG,0.00081
24,CTCAGACA,-0.0135
25,AGCCTGAT,-0.0931

row,Sequence,PBM E-score
1,ATCGTCCA,-0.0391
2,ATACGCAC,-0.032
3,GGCGTCGA,-0.167
4,ACTAATGC,0.0803
5,AAGAACTG,-0.0472
6,ACGCCGTC,-0.105
7,CCCCACGG,-0.178
8,GGATTTAC,0.102
9,GAAGGTAA,0.122
10,CTCAGATC,-0.11
11,GAATCTCA,0.049
12,ATATCCTA,0.0827
13,CTCTTCTA,0.0562
14,ACGTGCGG,-0.0575
15,CACTATAG,0.111
16,GAGAAGGA,-0.0992
17,AGCTACTC,0.066
18,CCACGACC,-0.219
19,GCTACATA,-0.0371
20,CGGTCATC,-0.125
21,AGCCACTA,0.0177
22,AGCTCGGC,-0.00249
